Test results published in the supplement of paper PMC12582362.
Where a name gives a salt, the structure may show the parent alone. About 30 (2%) of roughly 1,500 compounds showed activity.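 How the source made its calls: active = robust z-score below -2; a few such results were not called.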 The list shows a part of the results.

These molecules were tested on optoTopBP1 Flp-In 293 T-REx (HEK293) cells (assay: light-induced TopBP1 condensate (nuclear foci) count, plate-normalised robust z-score vs non-control wells; higher = more TopBP1 condensates (negative = condensation inhibitor), active = hit call of the paper). Details: 10 µM; incubation time 2 h.

Row | SMILES | light-induced TopBP1 condensate (z-score)
1 | O=C1c2ccccc2S(=O)(=O)N1CCCCN1CCN(c2ncccn2)CC1 [Ipsapirone] | inactive: -0.2
2 | Cn1c([N+](=O)[O-])cnc1COC(N)=O [Ronidazole] | inactive: -0.788
3 | COc1ccc(C(=O)NCc2ccc(OCCN(C)C)cc2)cc1OC [Itopride] | inactive: -0.155
4 | N[C@@H](C(=O)N[C@@H]1C(=O)N2C(C(=O)O)=C(Cl)CS[C@H]12)c1ccccc1 [Cefaclor hydrate] | inactive: -0.181
5 | CC(Oc1ccccc1)C(=O)N[C@@H]1C(=O)N2[C@@H]1SC(C)(C)[C@@H]2C(=O)O (some centres not stated) [Phenethicillin potassium salt] | inactive: 0.422
6 | Brc1c(NC2=NCCN2)ccc2nccnc12 [Brimonidine L-Tartrate] | inactive: -1.88
7 | CN(C)CCOC(=O)COc1ccc(Cl)cc1 [Meclofenoxate hydrochloride] | inactive: -0.223
8 | CCCc1nc(C(C)(C)O)c(C(=O)O)n1Cc1ccc(-c2ccccc2-c2nnn[nH]2)cc1 [Olmesartan] | inactive: 0.485
9 | N=C(N)N/N=C/c1c(Cl)cccc1Cl [Guanabenz acetate] | inactive: 0.547
10 | Cc1ccc2c(Cl)cc(Cl)c(O)c2n1 [Chlorquinaldol] | active: -9.09
11 | OC(CCN1CCCCC1)(c1ccccc1)C1CCCCC1 (configuration not stated) [Trihexyphenidyl-D,L Hydrochloride] | inactive: 0.636
12 | CC1(C)S[C@@H]2[C@H](NC(=O)C(c3ccccc3)S(=O)(=O)O)C(=O)N2[C@H]1C(=O)O (some centres not stated) [Sulbenicillin sodium salt] | inactive: 0.523
13 | CCC(=O)OCC(=O)[C@@]1(OC(=O)CC)[C@H](C)C[C@H]2[C@H]3[C@H]([C@@H](O)C[C@@]21C)[C@@]1(C)C=CC(=O)C=C1C[C@H]3Cl [Alclometasone dipropionate] | inactive: 0.331
14 | CN(CCOc1ccc(CC2SC(=O)NC2=O)cc1)c1ccccn1 (configuration not stated) [Rosiglitazone Hydrochloride] | inactive: -1.21
15 | COc1ccc(C[C@@H]2c3cc(OC)c(OC)cc3CC[N@+]2(C)CCC(=O)OCCCCCOC(=O)CC[N@@+]2(C)CCc3cc(OC)c(OC)cc3[C@H]2Cc2ccc(OC)c(OC)c2)cc1OC [Cisatracurium besylate] | inactive: -1.56
16 | Nc1cc(-c2ccncc2)c[nH]c1=O [Amrinone] | inactive: 0.329
17 | N#Cc1ccc(Oc2ccc3c(c2)COB3O)cc1 [Crisaborole] | inactive: 0.347
18 | CC(N)C12CC3CC(CC(C3)C1)C2 (configuration not stated) [Rimantadine Hydrochloride] | inactive: -0.685
19 | OCCOCCN1CCN(C(c2ccccc2)c2ccc(Cl)cc2)CC1 (configuration not stated) [Hydroxyzine dihydrochloride] | inactive: 0.678
20 | C=CC1=C(C(=O)O)N2C(=O)[C@@H](NC(=O)/C(=N\OCC(=O)O)c3csc(N)n3)[C@H]2SC1 [Cefixime] | inactive: 0.556
21 | Cc1cc(-n2c(=O)[nH]c(=O)n(C)c2=O)ccc1Oc1ccc(SC(F)(F)F)cc1 [Toltrazuril] | inactive: -0.166
22 | Cc1ccccc1N1C(=O)c2cc(S(N)(=O)=O)c(Cl)cc2NC1C (configuration not stated) [Metolazone] | inactive: 0.703
23 | COc1ccc2[nH]c([S+]([O-])Cc3ncc(C)c(OC)c3C)nc2c1 (configuration not stated) [Omeprazole] | inactive: 0.46

Row | SMILES | light-induced TopBP1 condensate (z-score)
24 | CCOC(=O)[C@H](CCc1ccccc1)N[C@@H](C)C(=O)N1CCC[C@H]1C(=O)O [Enalapril maleate] | inactive: -1.12
25 | CO/N=C(\C(=O)N[C@@H]1C(=O)N2C(C(=O)O)=C(C[N+]3(C)CCCC3)CS[C@H]12)c1csc(N)n1 [Cefepime hydrochloride] | inactive: 0.305
26 | CC(Oc1c(Cl)cccc1Cl)C1=NCCN1 (configuration not stated) [Lofexidine] | inactive: -0.165
27 | CC1=C(CC(=O)O)c2cc(F)ccc2/C1=C\c1ccc([S+](C)[O-])cc1 (configuration not stated) [Sulindac] | inactive: -0.112
28 | C[C@]12CC[C@@H]3c4ccc(O)cc4CC[C@H]3[C@@H]1C[C@@H](O)[C@@H]2O [Estriol] | inactive: 0.355
29 | CN(C)CCCO[C@@H]1[C@H]2OC(C)(C)O[C@H]2O[C@@H]1[C@H](O)CO [Amiprilose hydrochloride] | inactive: -0.123
30 | Cc1noc(NS(=O)(=O)c2ccc(N)cc2)c1C [Sulfisoxazole] | inactive: 0.115
31 | CCc1cccc2c3c([nH]c12)C(CC)(CC(=O)O)OCC3 (configuration not stated) [Etodolac] | inactive: -0.0887
32 | CC[N+](CC)(CC)CCC(O)(c1ccccc1)C1CCCCC1 (configuration not stated) [Tridihexethyl chloride] | inactive: 0.252
33 | COc1ccc(-c2cc(=O)c3c(O)cc(O[C@@H]4O[C@H](CO[C@@H]5O[C@@H](C)[C@H](O)[C@@H](O)[C@H]5O)[C@@H](O)[C@H](O)[C@H]4O)cc3o2)cc1O [Diosmin] | inactive: -0.578
34 | CCCCCCCN(CC)CCCC(O)c1ccc(NS(C)(=O)=O)cc1 (configuration not stated) [Ibutilide fumarate] | inactive: 1.01
35 | c1ccc2[nH]c(-c3cscn3)nc2c1 [Tiabendazole] | inactive: -0.00966
36 | CC1CS(=O)(=O)CCN1/N=C/c1ccc([N+](=O)[O-])o1 (configuration not stated) [Nifurtimox] | inactive: 0.226
37 | COc1ccc(C(=O)c2ccc(C)cc2)c(O)c1 [Mexenone] | inactive: 0.105
38 | COc1cc(C(=O)NC2CCCNC2)cc(OC)c1OC (configuration not stated) [Troxipide] | inactive: -0.997
39 | C[C@]12CC[C@@H]3c4ccc(O)cc4CC[C@H]3[C@@H]1CCC2=O [Estrone] | inactive: -1.46
40 | CN(C)[C@@H]1C(O)=C(C(N)=O)C(=O)[C@@]2(O)C(O)=C3C(=O)c4c(O)ccc(Cl)c4[C@@](C)(O)[C@H]3C[C@@H]12 [Chlortetracycline hydrochloride] | inactive: 0.127
41 | CC(=O)N(CC(C)C(=O)O)c1c(I)cc(I)c(N)c1I (configuration not stated) [Iocetamic acid] | inactive: -0.158
42 | O=C(O)CCC(=O)Nc1ccc(S(=O)(=O)Nc2nccs2)cc1 [Succinylsulfathiazole] | inactive: 0.522
43 | COc1cnc(NS(=O)(=O)c2ccc(N)cc2)nc1 [Sulfameter] | inactive: -0.26
44 | Cc1cccc(CN2CCN(C(c3ccccc3)c3ccc(Cl)cc3)CC2)c1 (configuration not stated) [Meclozine dihydrochloride] | inactive: 0.405
45 | CNCCC(Oc1ccccc1OC)c1ccccc1 (configuration not stated) [Nisoxetine hydrochloride] | inactive: -1.06
46 | CCCCC(C)(O)C/C=C/[C@H]1[C@H](O)CC(=O)[C@@H]1CCCCCCC(=O)OC (mixture of isomers) [Misoprostol] | inactive: 0.659

Row | SMILES | light-induced TopBP1 condensate (z-score)
47 | COc1ccccc1O [Guaiacol] | inactive: 1.04
48 | CCOC(=O)C1=C[C@]2(CC)CCCN3CCc4c(n1c1ccccc41)[C@@H]32 [Vinpocetine] | inactive: -1.24
49 | COc1ccc2cc([C@@H](C)C(=O)O)ccc2c1 [(R) -Naproxen sodium salt] | inactive: 0.216
50 | Nc1nc(=O)c2c([nH]1)NC[C@@H](CNc1ccc(C(=O)N[C@@H](CCC(=O)O)C(=O)O)cc1)N2C=O [Folinic acid calcium salt] | inactive: 0.806
51 | CC1(C)NC(=O)N(c2ccc([N+](=O)[O-])c(C(F)(F)F)c2)C1=O [Nilutamide] | inactive: -0.806
52 | CCCCC(CC)CNC(=N)NC(=N)NCCCCCCNC(=N)NC(=N)NCC(CC)CCCC (configuration not stated) [Alexidine dihydrochloride] | inactive: -0.446
53 | COC(=O)[C@@H]1[C@H]2C[C@H]3c4[nH]c5ccccc5c4CCN3C[C@@H]2CC[C@@H]1O [Yohimbine hydrochloride] | inactive: -0.184
54 | CCS(=O)(=O)CCn1c([N+](=O)[O-])cnc1C [Tinidazole] | inactive: 0.108
55 | O=C1CCc2cc(OCCCCc3nnnn3C3CCCCC3)ccc2N1 [Cilostazol] | inactive: -0.375
56 | C/C(=C(\CCOC(=O)c1ccccc1)SS/C(CCOC(=O)c1ccccc1)=C(/C)N(C=O)Cc1cnc(C)nc1N)N(C=O)Cc1cnc(C)nc1N [Bisbentiamine] | inactive: -1.63
57 | O=P(O)(O)C(Cl)(Cl)P(=O)(O)O [Clodronate disodium] | inactive: 0.665
58 | CCCCOc1cc(C(=O)NCCN(CC)CC)c2ccccc2n1 [Dibucaine] | inactive: 0.666
59 | CCC1=C(C)CN(C(=O)NCCc2ccc(S(=O)(=O)NC(=O)N[C@H]3CC[C@H](C)CC3)cc2)C1=O [Glimepiride] | inactive: 1.52
60 | OCc1cc(C(O)CNCCCCCCOCCCCc2ccccc2)ccc1O (configuration not stated) [Salmeterol] | inactive: -0.58
61 | O=C(O)Cc1sc(-c2ccccc2)nc1-c1ccc(Cl)cc1 [Fentiazac] | inactive: 0.683
62 | CC(=O)OCC(=O)[C@@]12N=C(C)O[C@@H]1C[C@H]1[C@@H]3CCC4=CC(=O)C=C[C@]4(C)[C@H]3[C@@H](O)C[C@@]12C [Deflazacort] | inactive: -0.182
63 | Cc1nc2n(c(=O)c1CCN1CCC(c3noc4cc(F)ccc34)CC1)CCCC2 [Risperidone] | inactive: 0.778
64 | CNCCC(Oc1ccc(C(F)(F)F)cc1)c1ccccc1 (configuration not stated) [Fluoxetine hydrochloride] | inactive: 0.51
65 | CC(=O)Nc1ccc(CC(=O)O)cc1 [Actarit] | inactive: -0.657
66 | C[C@@H](CN1CC(=O)NC(=O)C1)N1CC(=O)NC(=O)C1 [Dexrazoxane hydrochloride] | inactive: -0.035
67 | CC(=O)N[C@H]1[C@H]([C@H](O)[C@H](O)CO)OC(C(=O)O)=C[C@@H]1NC(=N)N [Zanamivir] | inactive: -0.513
